According to the supplement of paper PMC10126150:
Sequences with one replicate were seen in a single cluster, so their values are uncertain.

System: ATP
Experiment: switch fluorescence ratio, 500 uM ATP over buffer (Cy3 cluster intensity, sum of 5 cycles each) (fold (ratio)); higher = stronger signal-on switching upon ATP binding; sequences stand for … in TCGTCGGCAGCGTCAGATGTGTATAAGAGACAGTTTTTTTTTTTTTTTTTTTTTTTTT…TC
Settings: aptamer strand: ATP DNA aptamer (quencher-CACCTGGGGGAGTATTGCGGAGGAAGG + anchor), 100 nM annealed; ATP concentration: 500 uM; one replicate
Outline: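 Cy3-labelled switching-strand clusters on a modified Illumina MiSeq flow-cell were annealed to 100 nM quencher-labelled ATP aptamer, imaged in selection buffer, then imaged after 15 min with 500 uM ATP at 22 °C. Five buffer/ATP cycles ran, with NaOH stripping and re-annealing between them. The fluorescence ratio is summed target-cycle over summed buffer-cycle Cy3 intensity per cluster, averaged per switch-domain sequence. Clusters outside 100-1000 RFU were excluded.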
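Note: ATP exposure 15 min at 22 °C before imaging.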

Sequence | switch fluorescence ratio
TCCTGACGCT | 1.11
TAGTTGAGTC | 1
CTACCGGCTC | 1.14
ATGGGTATCG | 0.986
ACCCGCCCGA | 1.36
TCAGGGCACC | 1.02
AGCCGTAATC | 1.24
TGCTAAGTCG | 0.906
AGTTGCGCTT | 0.988
AGGCGTGAGC | 1.06
TCGTATGACT | 0.967
GCACTCTTTA | 1.02
TCTATAGTGT | 0.968
AGGAATTAG | 1.01
TGCCAATAA | 4.01
AGTAAACTT | 1.06
GTTTGGGGT | 1.03
CAATCAGTGG | 0.955
GTATACGAGC | 1.06
TGTAAATGGA | 1.01
CTATCAACGG | 0.985
TGAAGACCAG | 0.948
TTATGGGCAC | 1.08

Sequence | switch fluorescence ratio
AGTTTAAGA | 0.992
GCATGTATAA | 1.02
GTGTACGGTT | 0.945
CGTAGTTGGC | 0.929
GCAAACCTAG | 0.995
ATAATTAGC | 1
AGTGTGGTTC | 0.967
TCGATTTAGT | 0.968
GCGGATAGG | 1.01
GAACCGAGGT | 1.04
GGGGTCTAC | 0.984
CGGTTTTACC | 0.987
ATGAATGGCT | 0.938
AAACTTCAAG | 1
TCTTTTAGTT | 0.989
ACCCGAGCT | 1.07
GAGTTGTCTC | 1.06
TCGGAGAGAT | 1.09
GGTTGTAAC | 0.94
ATCTCTGAA | 1.03
AGTAAGATGA | 1.05
AAGACCTCGT | 1.02
ACGGTGCAGT | 1

Sequence | switch fluorescence ratio
TGCACGGGGT | 1.06
GAAGAAGAGC | 1.03
GGGTCAGGTC | 1.09
AACCCCGTAA | 2.05
GACCTCTCCA | 1.08
CGCACTTGAC | 1.83
TTGGGTCAAA | 1
CACAGTTATT | 1.04
CCCCATGTAT | 1.05
CGACGACGTC | 1.05
GGCATAGCCA | 0.971
ACTGGGGGG | 1
GACGAGTATC | 0.996
GTCGGACTTT | 0.999
TTCCTCGGAA | 2.38
AAGCACATAT | 1.46
TCGCATTGTC | 2.05
AACTCTCGAC | 1.05
GGTTTTCAAG | 0.985
TAAGATCACG | 0.988
TTATATTATG | 1.04
GTGCAGGATG | 1.05
AATCAACGTC | 1.01

Sequence | switch fluorescence ratio
GGGACGGAAT | 1.1
GGTAAGTGG | 0.942
TTTTCTCCG | 1.29
AATGATCGGT | 1
TTCTAGCATT | 0.979
CCATCATGTC | 1.09
ATCATGCGG | 1
CTTGACGGGG | 0.946
ATCGGCGTGG | 1.02
AGACTCATGC | 1.02
TGATCTACGG | 0.942
GTAGTATCCA | 0.962
TGTTTTGTCA | 1.02
TTATCGCATA | 1.22
GGTACATATC | 0.997
AAATGAAA | 1.03
TGAGCATATA | 1.42
ATAACGCAC | 2.24
AGACTATGTT | 0.993
TACATGTTAC | 1.13
CGGCATAATG | 1.01
TAGCTCCACG | 1.04
TTTGAGGCGT | 1.06

Sequence | switch fluorescence ratio
CCACTAGAAG | 1
TGGTGTGATA | 1.05
GGTATCATTT | 1.01
GGAGATCGGA | 1.09
GTGTTGGAAA | 1
CGTGTCACGT | 0.988
ATCCGGCGTG | 0.978
ACCGGTGTTA | 0.998
ATCAGACTCC | 1.08
CAGATGGTG | 0.988
AGTTAATGGC | 1.04
CCCCGTCAAA | 6.27
TTTGAAATGG | 1.57
TGCGGTTCTC | 1.01
TTAACGTACC | 1.7
AGCAGAAGCT | 1.03
GCGAACGTCG | 1.01
ATCTCGATTA | 0.953
AGTTATTTAG | 0.971
TTTTAAGTAG | 1.01
AGACGGGAAA | 1.05
ACGGGTGAAC | 0.987
CGTGGAGTAT | 1.01

Sequence | switch fluorescence ratio
AAGCCTACGA | 1.06
TTTCGCGATA | 1.06
ACACCCTATA | 1.22
TCGGTTGGA | 0.979
GACGCATTAG | 4.73
ATTTTAAGT | 1
GAAAAAGATG | 0.963
CCCCACTACA | 1.1
TCCAGGTTTG | 2.33
GACATCCGCA | 2.1
CGCATATGGG | 1.06
CTTGTGCT | 0.977
GAAGGTAAAA | 0.961
CGCAGCTGAT | 1.91
TTCCAACT | 1.09
TTAGGTTATG | 1.03
GCACCGGTAG | 1.06
TCTTTCACCC | 1.05
CCTATGTGGT | 1
TGGCATTGCG | 0.969
GTAGTTCGCT | 0.913
GAACTAGTCC | 1.03
TATATCACGG | 0.992

Sequence | switch fluorescence ratio
TAATAAGTTC | 0.994
GAAAGATCAT | 0.99
GAGACGATGA | 1.01
TGGCGGGACT | 1.02
CGAGACCCGT | 0.955
GGAAAAAACG | 1.06
TGATTTGATT | 1.01
TCCATCTTAG | 1.02
GCCCGTACCT | 1.11
CTAAGTTGT | 1
TTAGTACTG | 0.981
TACCGGAC | 1.86
GCCTAAGCTG | 1.01
GCCACGCAGC | 1.14
TTCGCAGGGC | 3
GGGTACGCAA | 1.91
TGGTGCGCA | 0.974
CGTAGCAGGA | 1.63
CCTCACGGTG | 3.39
GATGCGGTAT | 0.969
